Screen size: about 150,000 compounds; about 540 (0.36%) showed an effect of 50% or more. The list shows a part of the results.

Experimental findings from ChEMBL document CHEMBL4888484, “Replenishing the malaria drug discovery pipeline: Screening and hit evaluation of the MMV Hit Generation Library 1 (HGL1) against asexual blood stage Plasmodium falciparum ,using a nano luciferase reporter read-out” (2022) are described below.

The subject of the assay is Plasmodium falciparum. Put plainly: Primary screen in NF54 nanoGlo assay, in single point, at 2uM, 72h; a lower Z score goes with more inhibition. It counts as functional, Erythrocyte. The following applies: timepoint 72 hour.
In the case of `O=S(=O)(c1ccccc1OC(F)(F)F)N1CCC(c2nc3ccccc3s2)CC1`, the “% Inhibition” value stood at 1% and the Z score is on record as -0.06.

For the compound `N#Cc1c(N)nc2c(c1N)C[C@H](CO)O2`, the “% Inhibition” value is given as -6% and the Z score is listed as 0.69.

For the compound `Cc1ccc(C(=O)NCc2cccc(Cl)c2)cc1-n1nnc2cccnc21`, the “% Inhibition” value was -4% and the Z score turned out to be 0.75.

Consider `Cc1nccc(NC(=O)c2ccncc2Cl)c1Cl`, for which the “% Inhibition” value is -3% and the Z score is 0.28.

Turning to `CCOC1CC(NC(=O)CCc2cnccn2)C12CCOCC2` (centres undefined), the “% Inhibition” value is reported as -9% and the Z score is listed as 1.36.

Consider `O=c1cc2c(nn1CN1CCc3ccccc3C1)CCC2`, for which the “% Inhibition” value is listed as -14% and the Z score was 1.78.

Take `Cc1c(-c2ccccc2F)[nH]c2ccc(CNC(=O)C3CCOCC3)cc12`: the “% Inhibition” value stood at 6% and the Z score is on record as -0.88.

`Cc1ccccc1Nc1nnc(-c2ccccc2)c(-c2ccccc2)n1`: the “% Inhibition” value was 34% and the Z score is reported as -0.47.

For the compound `CCn1cc(NC(=O)c2cc(-c3cccc(OC)c3)nc3c2c(C)nn3C)cn1`, the “% Inhibition” value stood at 24% and the Z score is -2.73.

Consider `Cc1ccc2c(c1C)-n1cccc1C1(CCN(C(=O)COc3ccc(Cl)cc3)CC1)N2`, for which the “% Inhibition” value is on record as -7% and the Z score was 0.96.

Take `Cc1nccc(C(=O)N2CCO[C@H](c3ccccc3)CC2)n1`: the “% Inhibition” value is given as -10% and the Z score was found to be 1.87.

As for `Cc1csc([C@@H](C)CNC(=O)c2ccc[nH]2)n1`, the “% Inhibition” value is reported as -11% and the Z score is 1.19.

For the compound `CCS(=O)(=O)N1CCC(C(=O)N2CCN(c3cccc(Cl)c3)CC2)CC1`, the “% Inhibition” value is on record as -9% and the Z score was 1.36.

As to `Cc1nn(C)c(C)c1C(C)c1nc(C2CN3CCCCC3CO2)no1` (centres undefined), the “% Inhibition” value is given as 4% and the Z score is listed as -0.76.

With `Cc1cccc(N2CCN(C(=O)c3cc4c(=O)n(C)ccc4n3C)CC2)c1C`, the “% Inhibition” value was -11% and the Z score was 1.09.

Turning to `CC(C)c1ccc(-n2cc(-c3ccccc3)nc2NC(=O)CN(CCN2CCOCC2)C(=O)c2cccs2)cc1`, the “% Inhibition” value came out at 15% and the Z score was -2.18.

`c1cn(-c2ccc(N3CCC(N[C@@H]4COC5(CCCCC5)C4)CC3)cc2)cn1`: the “% Inhibition” value amounted to 8% and the Z score is listed as -1.06.

On to `Cc1nsc(NC(=O)c2cccnc2)n1`, for which the “% Inhibition” value turned out to be 31% and the Z score is reported as -3.54.

Consider `CC(C)CCNC(=O)[C@@H]1CC2(CN(Cc3ccccc3)C2)CN1C`, for which the “% Inhibition” value is listed as -1% and the Z score was 0.24.

As to `CCc1ccc(N2C[C@@H](c3ncon3)CC2=O)cc1`, the “% Inhibition” value was -11% and the Z score is reported as 1.04.

On to `Cc1nn(C)c(C)c1-c1ccnc(NC[C@H]2CCCO2)n1`, for which the “% Inhibition” value is listed as -18% and the Z score was 1.73.

`CC(NC(=O)NC(C)(C)C)C1CCCN(C(=O)c2cnns2)C1` (centres undefined): the “% Inhibition” value was -9% and the Z score came out at 1.77.

For `CN(C)c1ncccc1CNc1cc(C#N)ccn1`, the “% Inhibition” value is recorded as 6% and the Z score is listed as -0.7.

As to `Cc1cccc(-c2nc(Cn3nnc(C(=O)NCc4ccc(Cl)cc4)c3N)c(C)o2)c1`, the “% Inhibition” value is recorded as -11% and the Z score came out at 1.55.

`COc1ccc(C(=O)N(Cc2cc(NS(=O)(=O)c3ccc(OC)cc3)ccc2N(C)C)C2CC2)cc1`: the “% Inhibition” value is on record as 6% and the Z score is reported as -1.06.

With `Cc1nc2c(C(=O)N(C)Cc3ccncc3C)cccc2[nH]1`, the “% Inhibition” value was -8% and the Z score is reported as 1.38.

As for `CCCNC(=O)CN(CCC)c1ncc(F)cn1`, the “% Inhibition” value is -10% and the Z score stood at 0.98.

Take `CN(C(=O)CCc1cnn(C)c1)c1cc(Cl)cc(Cl)c1`: the “% Inhibition” value was -16% and the Z score is recorded as 2.51.

Take `CC(C)C(=O)NCCNC(=O)c1cnccn1`: the “% Inhibition” value was found to be 4% and the Z score is reported as -0.67.

As to `CCS(=O)(=O)Oc1ccccc1CN(C(=O)NC(C)C)C(C)C`, the “% Inhibition” value is reported as 0% and the Z score is 0.05.

With `O=C(c1cnccn1)N1CCC2(CC1)NC(c1ccccc1)=NO2`, the “% Inhibition” value was -18% and the Z score is recorded as 1.65.

`COC(=O)CCN(C)Cc1cc(C)on1`: the “% Inhibition” value is -6% and the Z score turned out to be 0.63.

`O=C(CNC(=O)c1ccc2c(c1)CCCC2)NC1CC1`: the “% Inhibition” value was -3% and the Z score was found to be 0.32.

In the case of `O=C(CC1CCN(C(=O)c2ccc3nc(-c4ccccc4)oc3c2)CC1)NCc1ccc2c(c1)OCO2`, the “% Inhibition” value is listed as -7% and the Z score amounted to 0.97.

`COc1ccc(CN2C[C@H]3CC[C@@H](C2)[C@H]3O)c(OC)c1OC`: the “% Inhibition” value is on record as -25% and the Z score is on record as 3.62.

`Cc1ccc(-c2c3c(=O)n(C)c(=O)n(C)c3c3n2-c2ccccc2N[C@@H]3c2cccc(F)c2F)cc1`: the “% Inhibition” value stood at 3% and the Z score is listed as -0.51.

On to `Cc1ccc2ncc(CN(C)Cc3cccn3C)n2c1`, for which the “% Inhibition” value stood at 6% and the Z score is recorded as -0.83.

As for `COC1CC(CCNC(=O)c2cnn(C(C)C)c2Cl)C1` (centres undefined), the “% Inhibition” value was -9% and the Z score is recorded as 1.46.

Take `O=C(c1cc2ccccc2[nH]1)N1CC[C@H](Cc2nncn2CC2CC2)C1`: the “% Inhibition” value is listed as -11% and the Z score was 1.93.

`O=C(c1ccc(F)cc1)N1CCN(Cc2csc(C3CCCCC3)n2)CC1`: the “% Inhibition” value was -5% and the Z score stood at 0.59.

As for `CCOC(C)(C)CNc1ncnc(N)c1Cl`, the “% Inhibition” value is given as -6% and the Z score was 1.15.

For `O=C(O)[C@@H]1CCCCN1C(=O)C1CCC=CCC1`, the “% Inhibition” value is reported as -6% and the Z score is 1.09.

What is called % Inhibition is the relative decrease from the control value, in per cent.
